# Measured values as given in ChEMBL document CHEMBL4888484, “Replenishing the malaria drug discovery pipeline: Screening and hit evaluation of the MMV Hit Generation Library 1 (HGL1) against asexual blood stage Plasmodium falciparum ,using a nano luciferase reporter read-out” (2022).
# Hit rate of the full screen: of about 150,000 compounds, about 540 (0.36%) showed an effect of 50% or more. The list shows a part of the results.
# System: Plasmodium falciparum
# Experiment: Primary screen in NF54 nanoGlo assay, in single point, at 2uM, 72h; a lower Z score goes with more inhibition
# Type: functional, Erythrocyte
# Conditions: timepoint 72 hour
SMILES,% Inhibition [%],Z score
CC(C)(O)c1cc(CC2(NCc3ccc(C(F)(F)F)cc3)COC2)no1,-10,1.25
Cc1noc(C)c1NC(=O)N1CCC(OCC2CC2)CC1,-9,1.71
Cc1nnc(-c2cc(CCC(C)C)n(-c3cccc(C(=O)NCC(C)C)c3)n2)o1,-9,1.54
C=CCNC(=O)c1cc(Br)ccc1OC,-11,1.96
Cc1cnc(N2CCC[C@H](CN(C)Cc3cccnc3)C2)nc1C,-4,0.49
O=C(NC1CC1)[C@@H]1CNCCN1C(=O)c1cc(=O)c2cccc(F)c2[nH]1,-16,1.52
Cc1nc(-c2ccccc2Cl)sc1CNC(=O)Cn1nc(C2CC2)ccc1=O,-6,1.14
CCS(=O)(=O)N(CCN1CCCCC1)C1CN(C(=O)CCn2cc(C)cn2)C1,-5,0.62
CNC(=O)[C@@H]1C[C@@H](NC(=O)c2cccnc2OC)CN1Cc1ccsc1,5,-0.69
CCOc1ncccc1C(=O)N1CC[C@H](c2sccc2C)[C@@H](O)C1,-5,1
COc1ccccc1CN[C@H]1[C@H](O)[C@@H](N2CCN(C(C)=O)CC2)[C@@H]2OC[C@H]1O2,4,-0.64
C[C@H](NC(=O)C1CCN(S(=O)(=O)c2ccc(Cl)cc2)CC1)C(=O)N1CCCc2ccccc21,6,-0.73
O=C(Nc1cnn(C[C@H]2COc3ccccc3O2)c1)N1CCOCC1,11,-1.43
CC(C)(C)c1noc(COc2nsnc2N2CCOCC2)n1,-3,0.39
CC(NC(=O)C1CCC(=O)N1)c1ccc(-c2cccnc2)cc1 (stereo unspecified),-3,0.48
O=C(c1cc(-c2ccccc2)n[nH]1)N1CC[C@@H](c2cccs2)S(=O)(=O)CC1,-10,1.64
Cc1cc(NCc2sncc2Br)nc(C)n1,-4,0.45
CN(Cc1cc(F)ccc1Cl)CC(C)(C)S(C)(=O)=O,-5,0.54
COc1ccc2[nH]nc(C(=O)N3CCC([C@H](C)N4CCN(C)CC4)CC3)c2c1,-2,0.22
OCC#Cc1csc(CN2C[C@H](O)[C@@H](F)C2)c1,-6,0.81
CCc1csc(CC2CCN(C(=O)CCc3ncccn3)CC2)n1,-18,2.94
CC(C)(C)n1nnc(CNC(=O)NCc2ccccc2-c2ccc(Cl)cc2)n1,0,0
CO[C@H]1COCC[C@@H]1Nc1ncc(C#N)c(N)n1,6,-0.6
